Results reported in a compilation of properties of binary mixtures (doi:10.1016/j.molliq.2019.111632).
Some of these densities may be calculated back from excess volumes.

Assay: xn = mol fraction of the nth substance listed
Conditions: 101 kPa

CCCC[n+]1ccn(C)c1.F[P-](F)(F)(F)(F)F + CC(C)=O
mass density [kg/m3]
Conditions	293.15 K	295.15 K	297.15 K	299.15 K	301.15 K	303.15 K
x1 = 0.0448	–	872.8	870.8	869	867	–
x1 = 0.0999	952	950	949	–	945	943
x1 = 0.166	1019	1017	1015	1013	1011	1010
x1 = 0.2	1059	1057	1055	1054	1052	1050
x1 = 0.284	1124	1122	1121	1119	1118	–
x1 = 0.377	–	1179	1177	1175	1174	1172
x1 = 0.49	1234	1233	1231	1229	1228	1226
x1 = 0.578	1268	1266	1265	1263	1262	1260
x1 = 0.673	1298	1297	1295	–	1292	1290
x1 = 0.745	1313.6	1311.9	–	1309	1307.3	1305.6
x1 = 0.803	1332.1	1330.4	–	1327.5	1325.9	–
x1 = 0.889	1350.5	1348.8	–	1345.9	1344.3	1342.6
x1 = 0.943	–	1359.3	1357.7	1356.4	1354.8	1353.1
